± gives the standard deviation of the averaged measurements. This is one part of the list.
These sequences were tested on PfAP2-LT AP2 domain (GST-tagged) (assay: gcPBM binding intensity (ln(normalized median fluorescence intensity)); higher = stronger DNA binding).
Procedure, shortened: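 Probes on an Agilent 4 × 180k array were primer-extended, double-stranded and 36 bp long, taken from intergenic genomic regions, with negative controls added. GST-tagged P. falciparum DNA-binding domains from E. coli, about 25 μg on average, were applied to the array for 1 h in 1× PBS containing 1% milk, 0.2 mg/ml BSA, 0.5% salmon testes DNA and 0.03% Triton X-100. Binding intensity, obtained after Alexa488 anti-GST antibody detection and a 488 nm scan, is the highest Masliner-normalised natural-log median intensity across replicate spots of either probe orientation.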

Sequence	gcPBM binding intensity (ln)
TTTTTTATTTTGTTGAAGCAATGAAAATGAATGAAA [TGCATGCA_negctrl_site495]	8.07 ± 0.26
TTGTTTATGTGAGAAGTGCATTTTTTCGTTCATGTA	8.77 ± 0.47
TACGCGAAATGAATATGTACATATATGAGGGCATAT [XGTACX_site4293]	9.12 ± 0.43
TAATATATAAATATATGTACATAATAAATAGGATAT [XGTACX_site3661]	8.99 ± 0.45
TTTATATAAGGACATGCATGCTATTATTAAATATAT [TGCATGCA_site1011]	8.83 ± 0.42
ACTTCATAGGTTACCTGTACATATAAGGAGTTATCA [XGTACX_site4110]	8.68 ± 0.35
ATATATACATATAATTGTACTTGTGTTGTTTTTCTT [XGTACX_site1870]	9.21 ± 0.41
TTAACGCTTATTTTTTGTACTTATTTTATTTTAAAT [XGTACX_site3977]	8.79 ± 0.4
CAACATTAATATAAAGCACACATATATATAATATAT [CACACA_site8064]	8.98 ± 0.46
ACTCTATAATAAAATACACACAAGACTATCTAATAT [CACACA_site1796]	9.03 ± 0.35
TCTTTTTTTTTTTTTTTTTTTTTTTTTTTTTTTTTT [GTGCAC_negctrl_site18]	8.63 ± 0.18
ATTTTAATGACATATACACACAAAGGTTCATAACAA [CACACA_site5664]	8.96 ± 0.3
TTTTCTTTTTAAATTACACACACATATATATATGTA [CACACA_site9172]	9.21 ± 0.3
ATAAAACCAACATAGAGTACAGATCGACTATGTTTC [XGTACX_site4329]	9.05 ± 0.47
TGTAGATATTATATATGTACGCATATGAAATATATA [XGTACX_site1586]	8.7 ± 0.38
AAAATATATAATATAACACACATATATTCTATATGG [CACACA_site4044]	8.86 ± 0.4
TTCAAAATATATATTTGTACATATAGGATCTTTTTC [XGTACX_site4500]	8.63 ± 0.42
TAATTATATAAATATTGTACAAAAAAAATATATATA [XGTACX_site3137]	8.64 ± 0.45
GTAATATCAATATAAAGTACACACTATAGTATGTAT [XGTACX_site4714]	9.05 ± 0.37

Sequence	gcPBM binding intensity (ln)
TATATTCTTTTAAACAGTACACACACACATATATAT [XGTACX_site1701]	9.64 ± 0.47
AATATAAAAATATAAAAACACACGTAAAAAAATTTA [CACACA_site3399]	8.86 ± 0.52
AAAAAAATTAAAAATAAAGAAAAAAAAAAAAAAAAA [GTGCAC_negctrl_site401]	8.38 ± 0.42
TTTTTTTTTTTGAGGAGGACACAAAAATATGCTACC [XGTACX_site756]	8.55 ± 0.39
GAATATTTATCATGGGGTACCTTAAAAAAGGGAAAA [XGTACX_site298]	8.46 ± 0.5
TTTTATTTATAATATATACACACTAACATTATTTAT [CACACA_site1284]	8.69 ± 0.37
ATATCTTAAATTATTTGTACATATATATATATATAT [XGTACX_site8034]	9.35 ± 0.18
ATATATATATATATATGTACACAGGACAATAATCCT [XGTACX_site6383]	9.8 ± 0.49
TATTAAAAGGTGAGTACACACATATATGTGTATATA [CACACA_site7070]	9.29 ± 0.38
TTTTTTTTTATAAATACACACGTACGGGTGCATAAC [CACACA_site8444]	8.74 ± 0.45
ATCATGAAATATATTTGTACACATAATAATATAATA [XGTACX_site8798]	8.88 ± 0.38
ATTTGGCAGAAACACACACACACACCCACCCACATA [CACACA_site589]	10.2 ± 0.35
GGAATAGTCGGGTGCATACACACCTTAAATATAATA [CACACA_site1081]	8.75 ± 0.51
AATCATATTAGTATGGTGCAATATATATATAAATAT [GTGCAC_site9800]	8.88 ± 0.33
AAAGAAAATTCAATAGTGCATAAAAATATATATGTT [GTGCAC_site9680]	8.8 ± 0.51
ACTAATTACTATAAAACACACATATATTTATTTATA [CACACA_site7263]	8.8 ± 0.47
CACATGTATTTATAGGTGCGTAAAAACACTTTATAT [GTGCAC_site9501]	8.73 ± 0.38
TTATAGAAACATTGGTGTACGATATTTACTTCTTTC [XGTACX_site7314]	8.79 ± 0.5
TTTTACTATACTTATGCACACAAGATATATACATAT [CACACA_site2968]	9.1 ± 0.32

Sequence	gcPBM binding intensity (ln)
TAAAAAAATTCATGCACACGAAATAAAAAGCACCTT [CACACA_site4667]	9.21 ± 0.3
TTTTCATTTTTTCGTTGTACATAAATAATATATATT [XGTACX_site856]	8.72 ± 0.38
AATACATACATACATACACACATATATATATATTAT [CACACA_site3575]	9.34 ± 0.29
AAACATAAATTTTATTGTACATTATATAGAATTTTC [XGTACX_site576]	8.46 ± 0.41
TTTTTTAAAAGATAATATTTTATTAATGTATTCTCA [GTGCAC_negctrl_site598]	8.33 ± 0.51
GCTTAGTTATATAACTGTACTATTTTTATTTATATG [XGTACX_site884]	8.9 ± 0.48
ATAAAGTAAGAAGAAATAATGATTTTCATGGAAAAC [XGTACX_negctrl_site322]	8.67 ± 0.58
AAATATAAGTAAATAAATAAATATATAAATATATAA [TGCATGCA_negctrl_site441]	8.65 ± 0.64
AAATACATACATTAATGTACAAATAGAAACACTCTT [XGTACX_site1512]	9.21 ± 0.45
CTCATAGTTGGGTGCACACAAAAAATTAAAAAAATA [CACACA_site3032]	9.2 ± 0.67
AATAAGATAAGGAAAAGTACTTATAATTAAACTAAT [XGTACX_site1850]	8.81 ± 0.47
TTTTTATTCGTTAAATGTACAAAAAAAATGTTATAT [XGTACX_site2804]	8.31 ± 0.43
ATACACTAGAAAATTTTATAGTATTATTAATGTTAA [GTGCAC_negctrl_site101]	8.51 ± 0.41
GATAAACCATATATAACACACATATGAATATTGCAA [CACACA_site6735]	9.1 ± 0.33
CACCCATACAGACATACACACACATATATATTAATA [CACACA_site8077]	9.67 ± 0.27
ATATCATATATAAGTCGTACGATGAATAGAATTTTT [XGTACX_site7586]	9.2 ± 0.54
CTTATACAAAAAAAAAGTACATAACATAATAAGAAT [XGTACX_site6782]	8.97 ± 0.47
TTATTTAAAAATAGCACACATTATATATATATATAT [CACACA_site5556]	9.01 ± 0.27

Source: the supplement of paper PMC11417369
